Measurements from PubChem BioAssay AID1030 (National Center for Advancing Translational Sciences (NCATS), 2008).
Hit rate of the full screen: of about 220,000 compounds, about 16,000 (7.3%) were called active. The inconclusive results got no clear call from the source; some entries with a clear call stand among them for comparison. Calls come from the whole dose curve; as a rule, active = well fitted inhibition curve with a large enough effect (not every such curve was filed as active); inconclusive = small, poorly fitted or top-dose-only effect, or another doubt; inactive = no such curve, though single readings can be large or run the other way. Where the call is inconclusive, the potency comes from a doubtful curve fit.

biological target: Aldehyde dehydrogenase 1A1 (Homo sapiens) (UniProt P00352); assay: qHTS Assay for Inhibitors of Aldehyde Dehydrogenase 1 (ALDH1A1); conditions: Purified ALDH1A1, NADH fluorescence, propionaldehyde substrate; series mostly up to 75.3 µM; activity, negative = inhibition: at the top concentration;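 for activity, negative = inhibition: plate controls were no enzyme wells and a reference inhibitor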
Potency is the fitted concentration of half-maximal effect; tags give direction and shape of the fitted curve.

UniProt P00352, sequence (P00352 whole entry, looked up): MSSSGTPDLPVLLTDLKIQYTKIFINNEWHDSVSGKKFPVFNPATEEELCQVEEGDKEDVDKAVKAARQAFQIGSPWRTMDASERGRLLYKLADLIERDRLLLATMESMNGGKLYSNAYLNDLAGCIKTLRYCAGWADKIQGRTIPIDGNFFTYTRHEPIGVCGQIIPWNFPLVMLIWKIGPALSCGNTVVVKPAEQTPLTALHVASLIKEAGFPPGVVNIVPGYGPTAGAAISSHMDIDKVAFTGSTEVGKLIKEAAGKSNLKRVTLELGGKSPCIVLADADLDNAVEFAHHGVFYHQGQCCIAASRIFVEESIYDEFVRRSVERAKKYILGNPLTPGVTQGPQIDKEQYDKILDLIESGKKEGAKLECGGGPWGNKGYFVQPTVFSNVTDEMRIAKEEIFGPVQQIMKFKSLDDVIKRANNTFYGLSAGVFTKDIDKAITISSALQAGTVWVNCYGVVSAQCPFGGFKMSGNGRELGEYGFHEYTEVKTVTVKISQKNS

Potency, active:
O=c1cc(O)nc(-c2ccccc2)s1 0.794 µM
O=C(N/N=C\c1cc(Br)cs1)C1COc2ccccc2O1 (stereo unspecified) 20 µM
Cc1oc(/N=C/c2c(O)ccc3ccccc23)c(C#N)c1C 35.5 µM
Cc1cccc(/N=C/c2nc(-c3ccccc3Br)oc2O)n1 3.55 µM
O=C(NNC(=S)Nc1ccc(Cl)cc1)c1cccs1 11.2 µM
CCC(C)c1ccc(NC(=S)Nc2ccc(OC)c(OC)c2)cc1 (stereo unspecified) 28.2 µM
COc1ccccc1Nc1ccc(N)cc1 28.2 µM
CCOC(=O)C1=C(C)NC(=S)NC1c1ccc(C)s1 (stereo unspecified) 2.51 µM
CCCC(C)C(=O)OCC(=O)Nc1ccc(Br)cc1 (stereo unspecified) 11.2 µM
Cc1cc(C)c(C(=O)COc2cccnc2[N+](=O)[O-])cc1C 1.58 µM
CN(C)CCNC(=O)c1sc2cccc(F)c2c1Cl 14.1 µM

Potency, inconclusive:
Cc1ccc(NC(=S)c2nc3ccccc3[nH]2)c(C)c1 37.7 µM [inhibitor, single point]
Cc1[nH]c2ccc(CNS(=O)(=O)c3ccc(S(=O)(=O)N4CCOCC4)cc3)cc2c1C 22.4 µM [inhibitor, single point]
COc1ccccc1C(c1nnnn1CC1CCCO1)N1CCN(c2ccccc2)CC1 (stereo unspecified) 25.1 µM [inhibitor, single point]
O=C(/C=C/c1ccccc1)c1ccc2c(c1)OCCCCO2 39.8 µM [inhibitor, single point]
O=C(CSc1nc2ccccc2o1)Nc1ccc(N2CCOCC2)c(Cl)c1 28.2 µM [inhibitor, single point]
CCCCN(C)C(=O)c1cc2cc3ccc(OC)cc3nc2s1 35.5 µM [inhibitor, partial curve]
S=c1[nH]nc(C2CCCCC2)o1 39.8 µM [inhibitor, single point]
COc1cc2ccc(=O)oc2c(O)c1O 31.6 µM [inhibitor, partial curve]
Cc1cccc(-c2nc(CS(=O)CC(=O)N3CCc4ccccc4C3)c(C)o2)c1 (stereo unspecified) 28.2 µM [inhibitor, single point]
O=C(c1ccco1)N1CCC2(CC1)CN(Cc1cc(C(F)(F)F)cc(C(F)(F)F)c1)C2 44.7 µM [inhibitor, single point]
c1ccc2sc(N3CCN(Cc4nnnn4CC4CCCO4)CC3)nc2c1 (stereo unspecified) 39.8 µM [inhibitor, single point]
CCOC(=O)N1CCC(Nc2c(Nc3ccc(F)cc3)c(=O)c2=O)CC1 39.8 µM [inhibitor, single point]
CCCN(CCC)S(=O)(=O)c1ccc(C(=O)Nc2nc3c(s2)CCc2ccccc2-3)cc1 28.2 µM [inhibitor, single point]
CCCCc1nc(S(=O)(=O)c2ccc(Cl)cc2)c(N2CCOCC2)o1 25.1 µM [inhibitor, partial curve]
CC(=O)c1cccc(NC(=O)C2C3C=CC(C3=C(c3ccccc3)c3ccccc3)C2C(=O)O)c1 (stereo unspecified) 39.8 µM [inhibitor, single point]
CCNc1sc(C(=O)c2cccs2)c(N)c1-c1nc2ccccc2s1 22.4 µM [inhibitor, single point]
O=C(CNc1ccc2ccccc2c1)N/N=C/c1ccc(C(=O)O)cc1 31.6 µM [inhibitor, single point]
O=C(Nc1cc(S(=O)(=O)N2CCCCC2)ccc1Cl)c1ccccc1NS(=O)(=O)c1ccc(F)cc1 39.8 µM [inhibitor, single point]
Cn1cccc1C(=O)OCC(=O)Nc1cccc(S(=O)(=O)N2CCOCC2)c1 2.51 µM [inhibitor, partial curve]
COC(=O)c1cccc(COC(=O)c2ccccc2NC(=O)c2ccco2)c1 39.8 µM [inhibitor, single point]
CC1CCN(c2nc3c(c(=O)n(C)c(=O)n3C)n2CCSc2nc3ccccc3s2)CC1 39.8 µM [inhibitor, single point]
COc1ccc(-c2ccnc(SCC(=O)N3CCOCC3)n2)cc1 39.8 µM [inhibitor, single point]
CC(C)Oc1ccc(Br)cc1/C=N\NC(N)=S 0.0891 µM [inhibitor, full curve, poor fit]
CCc1nnc(NC(=S)Nc2ccccc2)s1 37.7 µM [inhibitor, single point]
CCN1CCN(CCNC(=O)c2ccc(/C=C3/Sc4ccccc4N(Cc4ccccc4C)C3=O)cc2)CC1 22.4 µM [inhibitor, partial curve]
CC1(C)CC(=O)c2ccc(OCc3ccc([N+](=O)[O-])cc3)cc2O1 39.8 µM [inhibitor, single point]
Cc1ccc(C)c(N(CC(=O)NN=C2CCN(C)CC2)S(=O)(=O)c2ccccc2)c1 12.6 µM [inhibitor, partial curve]
CCOC(=O)c1sc(NC(=O)c2ccc(Cl)s2)cc1C 39.8 µM [inhibitor, single point]
COc1ccc(CCC(=O)OC(C)C(=O)c2ccc(C)cc2)cc1 (stereo unspecified) 22.4 µM [inhibitor, single point]
CCO[C@@H]1OC(C(=O)N2CCN(Cc3ccccc3)CC2)=C[C@H](C2CC2)[C@H]1CCCO 25.1 µM [inhibitor, single point]
COc1ccc(C(=O)CSc2nnc(C3CC3)n2N)cc1 35.5 µM [inhibitor, single point]
C=C(CCC(=O)c1ccccc1)C(=O)c1ccccc1 39.8 µM [inhibitor, single point]
N#CC(c1ccc(F)cc1)c1ccc(C(=O)c2ccc(F)cc2)cc1 (stereo unspecified) 35.5 µM [inhibitor, single point]
c1cncc(CNc2cccc(-c3nc4ccccc4[nH]3)c2)c1 31.6 µM [inhibitor, partial curve]
COc1ccc(C(=O)CN2C(=O)COc3ccccc32)cc1 14.1 µM [inhibitor, partial curve]
CCc1c(C)c2ccc(OCC(=O)OC(C)C)c(C)c2oc1=O 15.8 µM [inhibitor, partial curve]
CC(C(=O)N1CCCc2c1c(=O)oc1ccc(O)cc21)N1CCc2ccccc2C1 (stereo unspecified) 23.8 µM [inhibitor, single point]
CC(=O)C(C)Oc1ccc2c3c(c(=O)oc2c1)CCCC3 (stereo unspecified) 28.2 µM [inhibitor, partial curve]
CCC1(C)CC(=O)N(c2ccc(C(=O)O)c(O)c2)C1=O (stereo unspecified) 39.8 µM [inhibitor, single point]
CCCn1c(-c2ccc(F)cc2)nc2c(NCC3CCCN3CC)nc(C)nc21 (stereo unspecified) 35.5 µM [inhibitor, single point]
O=C(Cn1c(=O)n(CCCCC(=O)NC2CCCC2)c(=O)c2ccccc21)NCCC1=CCCCC1 0.891 µM [inhibitor, full curve]
O=C(Nc1ccc(N2CCOCC2)cc1)c1cc2ccccc2o1 4.47 µM [inhibitor, full curve]
Oc1cc2ccccc2cc1-c1n[nH]c(=S)o1 1.26 µM [inhibitor, full curve]
O=C(NCCOc1nc(N2CCCCC2)nc(N2CCCCC2)n1)Nc1ccccc1 4.47 µM [inhibitor, partial curve]
COc1ccc(S(=O)(=O)N2CCc3ccccc32)cc1C(=O)OCc1nnc(-c2ccccc2)o1 0.891 µM [inhibitor, full curve, poor fit]
O=C(NNC(=O)C1CC1)c1cc2cc3ccccc3nc2s1 39.8 µM [inhibitor, single point]
COCCn1c(=O)c(-c2ccccc2)nc2cnc(OCc3ccccc3)nc21 25.1 µM [inhibitor, partial curve]
O=C(c1cccn2c(=O)c3ccc(Cl)cc3nc12)N1CCN(Cc2ccc3c(c2)OCO3)CC1 22.4 µM [inhibitor, single point]

activity, negative = inhibition, inactive:
O=C(Cn1ncc2c1-c1ccccc1OC2)N(Cc1ccco1)C1CCCCC1 4.9%
COc1ccc(CCCNC(=O)CC#N)cc1OC -0.686%
CCCCOc1ccc(CSc2n[nH]c(C)n2)cc1 -7.24%
O=C(NC[C@@H]1CCCCN1)c1cc(OCC(F)(F)F)ccc1OCC(F)(F)F 6.17% [at 20.9 µM]
CN1CCN(/C=C2\SC(=S)NC2=O)CC1 1.07%
Cc1ccc(SCC(=O)NCc2ccc(F)cc2)cc1 1.43%
Cc1nn(-c2ccccc2)c(C)c1C(=O)OCC(=O)N1CC(=O)Nc2ccccc21 -11.8%
COC(=O)c1ccc(NC(=O)COC(=O)CSc2nc(C)cc(C)n2)cc1 3.44%
CCCC1(C(=O)O)NC(c2ccccc2O)C2C(=O)N(Cc3ccccc3)C(=O)C21 (stereo unspecified) 1.86%
CC(C)N(Cc1nc(-c2ccccc2)no1)C(=O)c1ccc(Cl)cc1 -0.0617%
O=C1SCC(c2ccc(Cl)cc2Cl)=NN1Cc1nnc(-c2ccccc2)o1 -6.71%
CCCn1nc(C(=O)Nc2nnc(CC)s2)c2ccccc2c1=O -0.332%
